# Experimental data as given in publication PMC4336329 (PLoS ONE, 2015).
# Among all 310,000 compounds or so, about 2,200 (0.71%) showed an effect of 50% or more. Effects have a minus sign here. The list shows a part of the results.
# Target: human ether-à-go-go-related gene (hERG) potassium channel (human, UniProt Q12809)
# Test: primary screen, population patch clamp on CHO cells stably expressing hERG
# Chain of human ether-à-go-go-related gene (hERG) potassium channel (Q12809 whole entry, looked up): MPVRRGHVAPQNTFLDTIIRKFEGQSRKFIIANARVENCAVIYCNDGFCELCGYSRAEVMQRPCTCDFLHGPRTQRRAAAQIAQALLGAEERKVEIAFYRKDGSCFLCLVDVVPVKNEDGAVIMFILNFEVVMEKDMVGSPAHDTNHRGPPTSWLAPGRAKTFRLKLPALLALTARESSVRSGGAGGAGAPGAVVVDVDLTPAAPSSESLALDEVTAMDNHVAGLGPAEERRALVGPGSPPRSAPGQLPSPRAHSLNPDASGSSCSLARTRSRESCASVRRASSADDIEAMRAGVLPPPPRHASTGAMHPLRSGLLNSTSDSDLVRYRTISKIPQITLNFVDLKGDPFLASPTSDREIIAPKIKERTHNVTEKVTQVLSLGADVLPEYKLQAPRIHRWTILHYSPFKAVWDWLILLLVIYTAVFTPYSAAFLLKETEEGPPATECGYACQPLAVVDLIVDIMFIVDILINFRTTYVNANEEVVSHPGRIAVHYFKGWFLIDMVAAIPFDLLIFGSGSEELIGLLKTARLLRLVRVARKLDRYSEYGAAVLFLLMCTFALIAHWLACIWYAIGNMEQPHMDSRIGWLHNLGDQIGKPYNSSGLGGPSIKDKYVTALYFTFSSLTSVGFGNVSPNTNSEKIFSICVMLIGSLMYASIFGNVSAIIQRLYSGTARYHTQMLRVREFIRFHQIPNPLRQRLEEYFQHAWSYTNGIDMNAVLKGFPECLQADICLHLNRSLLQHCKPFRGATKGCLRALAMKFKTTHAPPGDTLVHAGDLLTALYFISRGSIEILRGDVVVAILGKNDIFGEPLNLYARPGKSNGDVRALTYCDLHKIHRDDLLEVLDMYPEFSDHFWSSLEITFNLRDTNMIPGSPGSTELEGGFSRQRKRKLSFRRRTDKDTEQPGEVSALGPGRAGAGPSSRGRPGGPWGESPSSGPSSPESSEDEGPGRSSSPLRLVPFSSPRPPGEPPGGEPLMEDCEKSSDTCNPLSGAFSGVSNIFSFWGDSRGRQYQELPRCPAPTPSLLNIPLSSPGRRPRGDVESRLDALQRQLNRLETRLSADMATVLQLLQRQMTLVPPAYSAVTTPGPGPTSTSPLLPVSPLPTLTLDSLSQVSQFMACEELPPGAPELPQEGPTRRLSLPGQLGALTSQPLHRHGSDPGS
row,Compound,"hERG current change (%, negative = inhibition) at 1uM"
1,CCn1nc(C(=O)NNC(=O)C2CSC3(C)CCC(=O)N23)c2ccccc2c1=O (centres unmarked),8.69%
2,Cc1ccnc(NC(=O)CCC(=O)N(CC(=O)NCCc2ccccc2)c2ccc(F)cc2)c1,9.49%
3,Cc1cccc(NC2=C(Cl)C(=O)OC2OC(C)C)c1 (centres unmarked),1.22%
4,COc1ccc(/C=N/NC(=O)C(=O)/C=C2\NC3(CCCC3)Cc3ccccc32)cc1,8.09%
5,O=[N+]([O-])c1ccccc1S(=O)(=O)N1CCCc2ccccc21,9.08%
6,CSCC[C@H](NC(=O)NCc1ccccc1F)C(=O)O,14.1%
7,Cl.O=S(=O)(c1cccs1)N1CCN(C/C=C/c2ccccc2)CC1,-6.27%
8,O=S1(=O)c2ccccc2Nc2ccccc21,18.2%
9,CCn1c(SCC(=O)N/N=C(/C)c2ccncc2)nc2ccccc21,8.73%
10,CC(=O)OCCCNc1cc(SCc2ccco2)c2nonc2c1[N+](=O)[O-],-4.86%
11,CC(C)C[C@H]1CN=C(Nc2ccccc2)N1CCc1ccc(F)cc1,-36.2%
12,COc1cc(/C=C/C(=O)O)ccc1S(=O)(=O)N1CCCc2ccccc21,12.4%
13,COc1ccc(-n2nc3c(c2NC(=O)CC(C)C)CS(=O)C3)cc1 (centres unmarked),15.1%
14,CC1(C)c2ccccc2-c2nc3ccccc3cc2C1O (centres unmarked),3.87%
15,Cc1ccc(OC(C)C(=O)Nc2ccc(S(=O)(=O)Nc3cc(C)on3)cc2)cc1 (centres unmarked),-0.674%
16,Cc1cc(OCC(=O)NNC(=O)c2cccnc2)cc(C)c1Cl,8.86%
17,Cc1ccc(/C=N/NC(=O)c2nnn(-c3nonc3N)c2C)o1,12.7%
18,CC(C)(C)Nc1nc2cc([N+](=O)[O-])ccc2o1,26.5%
19,NNC(=O)c1sccc1OCc1cccc(C(F)(F)F)c1,9.85%

row,Compound,"hERG current change (%, negative = inhibition) at 1uM"
1,CCCCn1c(N)c(N(CCOC)C(=O)CSc2nc3ccc(C)cc3[nH]2)c(=O)[nH]c1=O,6.55%
2,Cc1nsc2nc3c(F)c(F)c(F)c(F)c3cc12,16.8%
3,CCOC(=O)C1=C(c2ccccc2)N=c2s/c(=C\c3cc(OC)c(OC)c(OC)c3)c(=O)n2C1c1cccs1 (centres unmarked),7.89%
4,O=C(CSc1nc(NS(=O)(=O)c2ccccc2)cc(=O)[nH]1)Nc1ccc(F)cc1,11%
5,Cc1cccc(NC(=O)CC(C)(C)C)c1,9.02%
6,O=C(Cn1cnc2c(cnn2-c2ccc(F)cc2)c1=O)N1CCCc2ccccc21,-10.5%
7,CC1(C(=O)N2CCC(CO)(Cc3cccc(C(F)(F)F)c3)CC2)CC1,8.78%
8,CCCCOc1ccc(C(=O)N/C(=C\c2ccc(OC)cc2)C(=O)OCc2ccco2)cc1,6.49%
9,CN(CCc1ccccn1)C(=O)c1cc(COc2ccc(F)cc2F)on1,7.55%
10,CCN1C(=O)N(CC)C(=O)C2(Cc3ccccc3N3CCN(c4ccccc4)CC32)C1=O (centres unmarked),14.4%
11,O=C1c2ccccc2NC(c2cnc3ccccc3n2)N1O (centres unmarked),-0.0078%
12,CCc1cccc(NC(=O)C2CCCN2S(=O)(=O)c2ccc3c(c2)CC(C)N3C(C)=O)c1 (centres unmarked),-25.5%
13,Cc1c(/C(O)=C2\C(=O)C(=O)N(CCN(C)C)C2c2cccs2)cnn1-c1ccccc1 (centres unmarked),1.49%
14,O=C(Nc1sc2c(c1C(=O)O)CCC2)c1ccccc1,3.81%
15,O=[N+]([O-])c1ccc(CN2CCC(Cc3ccccc3)CC2)cc1,-9.62%
16,COc1ccccc1Nc1ncnc2ccccc12,-0.651%
17,CCN(C(=O)Cn1c(=O)oc2ccccc21)c1ccc(C)c(C)c1,4.51%
18,COc1ccccc1-c1sc2cc3c(cc2c1C#CC1(O)CCCCC1)OCO3,14.4%
19,COCC(=O)N1CCC(Oc2ccc(C(=O)NC(C)c3csc(C)n3)cc2)CC1 (centres unmarked),15.2%

row,Compound,"hERG current change (%, negative = inhibition) at 1uM"
1,Cn1c(=O)oc2cc(S(=O)(=O)N3CCCc4ccccc43)ccc21,3.12%
2,O=C(NCc1nc2ccccc2[nH]1)c1cccc(S(=O)(=O)N2CCCC2)c1,12.4%
3,CC1=CC(c2ccccc2)n2nnnc2N1 (centres unmarked),12.9%
4,Cc1cc(Cl)c(S(=O)(=O)NC(C(=O)O)c2ccccc2)cc1OCC(N)=O (centres unmarked),6.08%
5,CC(/C=N\NC(=O)CN1CCN(S(=O)(=O)c2ccc(C)cc2)CC1)=C\c1ccccc1,1.26%
6,CC(C)OC(=O)Cn1nc(C(F)(F)F)c2c1CCCC2,17.4%
7,COc1ccc(C)cc1NC(=O)CNc1ccccc1CN(C)C1CCCCC1,4.68%
8,COc1ccc(-n2c(Cc3cccn3C)nnc2SCC(=O)Nc2ccc(C)cc2C)cc1,-3.57%
9,CC(=O)c1c(C)cc(C)c(CSc2ccccn2)c1C,22.9%
10,Cc1ccc(-c2nnc(N(C)C(=O)c3ccccn3)s2)cn1,12.5%
11,Cc1ccc(NC(=O)CCC(=O)NNS(=O)(=O)c2ccc(Cl)cc2)cc1C,3.88%
12,Cl.Clc1cccc(CSC2=NCCCN2)c1,2.18%
13,CN(C(=O)CSc1nc(-c2ccccc2)cs1)C1CCS(=O)(=O)C1 (centres unmarked),-6.57%
14,CCCNC(=O)C1CC(c2ccc(C(F)(F)F)cc2)=NO1 (centres unmarked),-0.587%
15,COc1ccccc1NC(=O)Cc1noc(CSc2nnc(N)s2)n1,13.6%
16,Cc1ccc(N2CC(C(=O)Nc3cccc(F)c3)CC2=O)cc1 (centres unmarked),8.72%
17,Fc1ccc(-c2nc3nc4ccccc4nc3n2Cc2ccco2)cc1,-14.9%
18,COc1ccccc1NC(=O)C(O)C(O)C(=O)Nc1ccccc1OC (centres unmarked),4.56%
